In PubChem BioAssay (NCATS) one finds max response and AC50 data, which are given here for 18 molecules.

Each structure is given as a SMILES string. Where “and” joins values, the source holds several entries; their conditions need not be identical. Equal entries are not always repeated. This is one part of the list. These are further read-outs of the screen, such as a control signal, another cell line or another target. No call is given for them. The list favours compounds with an active or inconclusive main result. Potencies come from curve fits of mixed quality, noted in brackets.

A short description of this assay: qHTS Assay for Lipid Storage Modulators (AID 1519). To be noted: Drosophila S3 cells, BODIPY lipid droplet/cell ratio, laser cytometry, cells loaded with oleic acid. An outline of the steps: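 Cells seeded at 5,000 per well were treated with compounds over a concentration series and loaded with oleic acid (400 uM, as added). Lipid droplet fluorescence (488 nm excitation, 500-530 nm channel) was read by laser-scanning cytometry and normalized to 20 uM Triacsin C.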

[1] abbreviates: measured here: cell count channel max response.
Setting [2] is: measured here: cell number channel AC50.
The mark [3] stands for this setting: measured here: lipid (BODIPY) channel AC50.
Where [4] appears, read: measured here: lipid channel max response.
Tags describe the fitted curve by direction and shape.

Usually AC50 stands for the concentration at which the activity in the assay is half-maximal. Turning to `N#Cc1cccc(-c2nccc(NCc3cccs3)n2)c1`, the max response under setting [1] is 6.86% and the max response under setting [4] worked out at 10.9%. The concentration at half-maximal activity (AC50) was 0.891 µM [rising, full curve, poor fit] under setting [2] and 0.891 µM [rising, full curve, poor fit] under setting [3].
Turning to `O=C(c1cc(C(F)(F)F)cc(C(F)(F)F)c1)N1CCC2(CC1)CN(c1ccccn1)C2`, the max response by setting is: under setting [1], 4.02%; under setting [4], -1.21%. Further, the AC50 reads like this: under setting [2], 3.98 µM [rising, partial curve, poor fit]; under setting [3], 5.01 µM [rising, partial curve, poor fit].
`COc1ccc(Oc2ncc3nc(-c4cccc(C#N)c4)c(=O)n(Cc4cccc(OC)c4)c3n2)cc1`: the max response runs as follows: under setting [1], 17.7%; under setting [4], 21.9%. Moreover, the AC50 under setting [2] is 0.631 µM [rising, full curve, poor fit] and the half-maximal activity concentration (AC50) under setting [3] is 0.708 µM [rising, full curve, poor fit].
`COC(=O)N1CCC2(CCCN(Cc3cc(C(F)(F)F)cc(C(F)(F)F)c3)C2)CC1`: the max response reads like this: under setting [1], 41.9%; under setting [4], 59.6%. Besides, the AC50 was 14.1 µM [rising, partial curve] under setting [2] and 17.8 µM [rising, partial curve] under setting [3].
Turning to `COc1ccccc1-c1ccc2ncnc(N3CCNCC3)c2c1`, the max response is, setting by setting: under setting [1], 38.4%; under setting [4], 39.3%. Also, the AC50 reads like this: under setting [2], 0.794 µM [rising, partial curve]; under setting [3], 0.224 µM [rising, full curve].
Regarding `COc1ccc(CNc2ccnc(-c3ccc(C(=O)N(C)C)cc3)n2)c(OC)c1`, the max response by setting is: under setting [1], 33.9%; under setting [4], 36.8%. The concentration at half-maximal activity (AC50) runs as follows: under setting [2], 4.47 µM [rising, full curve, poor fit]; under setting [3], 0.0447 µM [rising, full curve, poor fit].
`Cc1noc(C)c1-c1ccc2ncnc(NCc3cccs3)c2c1`: the max response runs as follows: under setting [1], 6.59%; under setting [4], 3.19%. In addition, the AC50 reads like this: under setting [2], 3.55 µM [rising, partial curve]; under setting [3], 4.47 µM [rising, partial curve].
Consider `COc1cccc(Cn2c(=O)cnc3cnc(N(C)C)nc32)c1`, for which the max response runs as follows: under setting [1], 14.4%; under setting [4], 13.4%. Besides, the AC50 runs as follows: under setting [2], 8.91 µM [rising, partial curve, poor fit]; under setting [3], 0.00355 µM [rising, full curve, poor fit].
`COc1ccccc1-c1cncnc1N(C)Cc1ccco1`: the max response under setting [1] was found to be 33.8% and the max response under setting [4] was found to be 36.9%. In addition, the AC50 reads like this: under setting [2], 8.91 µM [rising, partial curve]; under setting [3], 6.31 µM [rising, partial curve].
In the case of `CNc1ncncc1-c1ccc(C(=O)N(C)C)cc1`, the max response worked out at 33.5% under setting [1] and 47.7% under setting [4]. The half-maximal activity concentration (AC50) was 15.8 µM [rising, partial curve, poor fit] under setting [2] and 15.8 µM [rising, partial curve, poor fit] under setting [3].
Turning to `CCOC(=O)C1=C(N)Oc2ccc(Br)cc2[C@@H]1[C@@H](C#N)C(=O)OCC`, the max response was 84.9% under setting [1] and 111% under setting [4]. The half-maximal activity concentration (AC50) by setting is: under setting [2], 7.08 µM [rising, full curve]; under setting [3], 7.94 µM [rising, partial curve].
With `COc1cc2oc(-c3ccccc3)cc(=O)c2cc1OC`, the max response was 81.8% under setting [1] and 109% under setting [4]. Further, the AC50 under setting [2] was 0.794 µM [rising, full curve] and the AC50 under setting [3] is 0.501 µM [rising, full curve].
Turning to `CN(C)C(=O)c1ccc(-c2cc(N(C)Cc3ccco3)ncn2)cc1`, the max response reads like this: under setting [1], 42.6%; under setting [4], 49.8%. For the same molecule, the AC50 under setting [2] is 39.8 µM [rising, partial curve] and the AC50 under setting [3] was 39.8 µM [rising, partial curve].
Take `CCS(=O)(=O)N1CCC[C@H]2CN3CCc4cc(OC)ccc4[C@@H]3C[C@@H]21`: the max response under setting [1] turned out to be 51.7% and the max response under setting [4] amounted to 64.6%. Moreover, the half-maximal activity concentration (AC50) is 7.94 µM [rising, partial curve, poor fit] under setting [2] and 15.8 µM [rising, partial curve, poor fit] under setting [3].
`COc1ccc(-c2cc(=O)c3c(O)cc(O)cc3o2)cc1`: the max response under setting [1] was -29.8% and 59.9%; the max response under setting [4] was -39.2% and 67.6%. The AC50 is 17.8 µM [rising, partial curve, poor fit] under setting [2]; 15.8 µM [falling, single point] and 15.8 µM [rising, full curve] under setting [3].
In the case of `COCCn1c(=O)c(-c2cc(F)cc(F)c2)nc2cnc(OCc3ccccc3)nc21`, the max response is, setting by setting: under setting [1], 19.4%; under setting [4], 6.13%. Also, the AC50 is 7.08 µM [rising, partial curve] under setting [2] and 3.98 µM [rising, partial curve] under setting [3].
In the case of `CN1CCc2cccc3c2[C@@H]1Cc1ccc(O)c(O)c1-3`, the max response by setting is: under setting [1], 92.6%; under setting [4], 127%. Moreover, the half-maximal activity concentration (AC50) runs as follows: under setting [2], 25.1 µM [rising, partial curve]; under setting [3], 25.1 µM [rising, partial curve].
Regarding `COc1ccccc1-c1cc(N(C)Cc2ccco2)ncn1`, the max response by setting is: under setting [1], 29.2%; under setting [4], 30.5%. The AC50 under setting [2] is 5.62 µM [rising, full curve, poor fit] and the AC50 under setting [3] was 3.55 µM [rising, full curve, poor fit].
